# Assay results: PubChem BioAssay AID1745853 (National Center for Advancing Translational Sciences (NCATS), 2022)
# The other results are listed elsewhere or left out. Further columns of the screen follow, without active or inactive calls.
# Tests used:
# Assay in all cases: Primary Screen for Target Class Profiling of Small Molecule Inhibitors of Methyltransferases
# [1] = target: Glycine N-methyltransferase (Homo sapiens) (UniProt Q14749); settings: purified enzyme, MTase-Glo SAH luminescence; measured here: GNMT inhibition; at 40 µM; stronger effect = lower value
# In short: (§1)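 Each enzyme was reacted with SAM and its substrate, with compounds tested once at 40 uM; SAH formed was read by MTase-Glo luminescence.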
# [2] = target: Guanidinoacetate N-methyltransferase (Homo sapiens) (UniProt Q14353); settings: purified enzyme, MTase-Glo SAH luminescence; measured here: GAMT inhibition; at 40 µM; stronger effect = lower value
# In short: as §1
# [3] = target: Histamine N-methyltransferase (Homo sapiens) (UniProt P50135); settings: purified enzyme, MTase-Glo SAH luminescence; measured here: HNMT inhibition; at 40 µM; stronger effect = lower value
# In short: as §1
# [4] = target: Nicotinamide N-methyltransferase (Homo sapiens) (UniProt P40261); settings: purified enzyme, MTase-Glo SAH luminescence; measured here: NNMT inhibition; at 40 µM; stronger effect = lower value
# In short: as §1
# [5] = target: Phenylethanolamine N-methyltransferase (Homo sapiens) (UniProt P11086); settings: purified enzyme, MTase-Glo SAH luminescence; measured here: PNMT inhibition; at 40 µM; stronger effect = lower value
# In short: as §1
# % is set by controls: 0 for no effect and ±100 for the full control effect.
Compound,"activity change, negative = inhibition [1] [%]","activity change, negative = inhibition [2] [%]","activity change, negative = inhibition [3] [%]","activity change, negative = inhibition [4] [%]","activity change, negative = inhibition [5] [%]"
Cc1cc2sc(NC(=O)Cc3ccccc3)nc2cc1Cl,-9.87,-5.39,8.66,-16.7,-0.842
CN1CCN([C@H]2CCN(Cc3ccc4occc4c3)C[C@H]2CCC(=O)O)CC1,-1.16,-0.75,0.112,1.93,-3.62
Cc1ccc(NC(=O)N[C@H]2C[C@@](O)(C(=O)N[C@H]3CCCNC3=O)C[C@@H](O)[C@@H]2O)cc1,-3.25,-7.1,-2.71,-10.6,-9.59
CCc1cc2c(cc3n2CC(C(=O)NC2CCCCCC2)(c2ccccc2)N(Cc2cccc(F)c2)C3=O)s1 (stereo not given),-1.33,0.129,3.15,-3.98,-5.31
Cn1c(=O)n(C)c2cc(S(=O)(=O)Nc3cccc4c3CCCC4)ccc21,-0.701,0,-0.08,-5,-0.975
Cc1c(NC(=O)c2cc3c(s2)CCCC3)cccc1-c1cn(C)c(=O)c(Nc2ccc(C3C(=O)N(C)CCN3C)cc2)n1 (stereo not given),-10.7,-8.41,-2.69,-24.2,-14
COCCN1C(=O)c2cc3occc3n2CC1(C)C(=O)NC1CCCCCCC1 (stereo not given),5.73,7.99,9.05,4.26,3.02
CCc1ccccc1NC(=O)Cn1c(=O)oc2cc(S(=O)(=O)N3CCCCC3C)ccc21 (stereo not given),14.8,0,8.41,6.1,3.81
Cn1c(=O)c2ccc(C(=O)NC3CCCCC3)cc2n2c(=O)n(Cc3cccc(F)c3)nc12,-3.89,0.844,-1.75,-5.13,-3.03
COc1ccc(CNC(=O)c2ncn3c2C(=O)N(C2CC2)C(C)(C(=O)NCc2ccc(OC)cc2)C3)cc1 (stereo not given),0.444,0.595,7.77,1.71,5.03
O=C(CCC1CCCC1)Nc1ccc(-c2nnc3n2CCCC3)cc1,-1.71,0.758,-1.86,-7.71,12.7
CCOC(=O)[C@@H](N)Cc1ccc(-c2cc(O[C@H](c3ccc(Cl)cc3-n3ccc(C)n3)C(F)(F)F)nc(N)n2)cc1,-86.4,1.13,5.21,-46.6,-0.737
O=C(NN1CCCC1)NS(=O)(=O)c1ccc(Cl)cc1,-0.745,4.08,2.65,-13.9,-8.88
CCN(CC)Cc1cccc(NS(=O)(=O)NCc2ccccc2)c1,-5.77,-8.75,-22.4,-12.1,6.05
CC(=O)Nc1c2n(c3ccccc13)CC(C)(C(=O)NC1CCCCC1)N(C1CCCCC1)C2=O (stereo not given),0.515,3.46,-0.192,-1.47,1.43
COC(=O)C1=COC(O[C@@H]2O[C@H](CO)[C@@H](O)[C@H](O)[C@H]2O)/C(=C\COC(=O)/C=C/c2ccccc2)C1CC(=O)OCCc1ccc(O)cc1 (stereo not given in full),2.6,8.79,0.466,-4.28,7.85
CCc1ccccc1OC[C@@H](O)CN[C@H]1CCCc2ccccc21,-16.6,-2.47,-26.3,-18.5,-5.53
COc1ccccc1CNC(=O)C1(C)Cn2nc(-c3ccccc3)cc2C(=O)N1Cc1cccc(C)c1 (stereo not given),1.89,0.133,9.25,11,3.31
CCCSCCCN1C(=O)c2cc3occc3n2CC1(C)C(=O)NC1CCCCC1 (stereo not given),3.33,-13.6,7.19,13,3.76
COc1ccc(C(=O)N[C@@H]2CN(C(=O)Nc3cccc(C(F)(F)F)c3)CCC[C@H]2O)cc1,-8.16,-11.1,-6.89,-15.6,-2.12

Compound,"activity change, negative = inhibition [1] [%]","activity change, negative = inhibition [2] [%]","activity change, negative = inhibition [3] [%]","activity change, negative = inhibition [4] [%]","activity change, negative = inhibition [5] [%]"
COc1ccc(OC)c(S(=O)(=O)N2CCc3nc(-c4ccccc4)[nH]c3C2)c1,0.469,-2.38,12.4,-11.9,0.109
COc1ccc2c(OCc3nnc4ccc(-c5ccccc5)nn34)ccnc2c1,3.24,1.15,4.29,-11.9,-6.46
COc1ccc(-c2cc3n(n2)CC(C)(C(=O)NC2CCCCC2)N(CCCOC(C)C)C3=O)cc1 (stereo not given),-1.14,0.445,4.78,0.193,-0.253
C=C1[C@H](OC(C)=O)[C@H]2[C@@H](OC(C)=O)[C@](C)(OC(C)=O)C[C@]2(OC(C)=O)C(=O)[C@H](C)/C=C/C(C)(C)C(=O)[C@H](OC(=O)C(C)C)[C@H]1OC(C)=O,-0.981,1.53,10.9,-14,-8.55
CC(C)OCCCn1c(=O)c2ccccc2n2c(SCc3ccccc3Cl)nnc12,-3.68,2.86,9.87,-4.7,5.25
Cc1noc(-c2ccccc2Cl)c1C(=O)NCCCc1ccccc1,-11,-9.21,-5.38,-24.6,-14.6
CN1C(=O)c2cc3ccccc3n2CC1(C)C(=O)NCC(=O)N1CCCCC1 (stereo not given),-7.25,5.2,-3.37,-4.44,0.927
O=C1CCCCC(C(=O)N2CC=C(c3ccccc3)CC2)N1 (stereo not given),-8.96,-3.29,-1.33,-6.28,-0.858
C=C(C(=O)O)C1CCC2(C)CCC(O)C(=C)C2C1 (stereo not given),1.33,1.78,10.4,-11.9,4.36
COC1CCN(CC2CCCCCN2C(=O)c2cc(F)ccc2F)CC1 (stereo not given),-2.29,-9.42,-5.11,-16.4,-10.4
CC(C)Cn1c(=O)c2ccc(C(=O)NC(C)C)cc2n2c(SCc3cccc(F)c3)nnc12,0.081,-12.2,8.8,-3.62,-8.16
CN1CCN(C2=Nc3ccccc3Oc3ccc(Cl)cc32)CC1,-8.72,2.73,-0.665,-10.4,5.04
COc1cccc(N2CCN(S(=O)(=O)c3ccc4[nH]c5c(c4c3)CCCC5)CC2)c1,-2.71,1.67,-2.08,-2.84,0.038
CCn1nc(CC(C)C)cc1C(=O)N(C)Cc1cccc(-n2cccn2)c1,-7.44,-5.23,-2.36,-16.9,-11
COCC(=O)NC1CCC12CCN(C(=O)c1ccc3ccccc3n1)CC2 (stereo not given),-1.47,-3.88,2.07,-6.57,-2.14
CN1C(=O)c2cc(C(=O)N3CCC(Cc4ccccc4)CC3)nn2CC1(C)C(=O)NCc1ccccc1 (stereo not given),-3.63,4.28,-0.575,-1.16,0.724
CN1C2CCC1CC(OC(=O)c1c[nH]c3ccccc13)C2 (stereo not given),-8.29,3.22,-10.7,-9.53,4.15
CC(C)NC(=O)c1ccc2c(=O)n(C)c3nn(CC(=O)Nc4cccc(F)c4)c(=O)n3c2c1,7.27,1.99,11.2,0.028,9.17
CNc1cccnc1OC1CCN(S(=O)(=O)c2ccc3c(c2)CCC3)C1 (stereo not given),-10.6,-12.1,-5.25,-21.2,-13.2
Cc1ccc(NC(=O)Cn2nc3n(CCCOC(C)C)c(=O)c4ccccc4n3c2=O)c(C)c1,2.14,4.91,-0.935,-5.39,2.43

Compound,"activity change, negative = inhibition [1] [%]","activity change, negative = inhibition [2] [%]","activity change, negative = inhibition [3] [%]","activity change, negative = inhibition [4] [%]","activity change, negative = inhibition [5] [%]"
CC1=CC[C@]2(C(=O)O[C@@H]3O[C@H](CO[C@@H]4O[C@H](CO)[C@@H](O[C@@H]5O[C@@H](C)[C@H](O)[C@@H](O)[C@H]5O)[C@H](O)[C@H]4O)[C@@H](O)[C@H](O)[C@H]3O)CC[C@]3(C)C(CCC4[C@@]5(C)C[C@@H](O)[C@H](O)[C@@](C)(CO)C5CC[C@]43C)C2C1C (stereo not given in full),4.76,4.4,7.67,-9.07,5.03
COc1ccc(OC)c2c1cc1n2CC(C)(C(=O)NC2CCCC2)N(Cc2ccc(F)cc2)C1=O (stereo not given),8.53,0,11.3,15.6,4.94
Cc1cc(Cl)ccc1NC(=O)CN(C)S(=O)(=O)c1ccc2[nH]c3c(c2c1)CCCC3,-2.08,-3.49,2.94,-4.09,-0.478
CC(C)CC(=O)N1CCCCCC1c1nc(-c2ccncc2)no1 (stereo not given),-5.3,-6.87,-3.35,-6.69,-4.32
CCc1ccc(S(=O)(=O)c2nnn3c2nc(NCCC(C)C)c2ccccc23)cc1,-1.35,3.49,-1.35,3.52,-4.47
CC(C)c1nnc(C2CN(C(=O)Cc3ccccc3Cl)CC23CCOCC3)o1 (stereo not given),-0.662,0.173,0.088,3.06,-2.47
CCCn1c(=O)c2ccc(C(=O)NC3CCCCC3)cc2n2c(=O)n(CC(=O)c3cc(C)ccc3C)nc12,3.31,0,5.56,1.36,3.72
Cc1nnc(C(=O)NC(C)(C)c2nc(C(=O)NCc3ccc(F)cc3)c(O)c(=O)n2C)o1,7.08,-1.88,3.17,-15.8,-3.64
CC1(C(=O)NC2CCCCC2)Cn2nc(-c3cccs3)cc2C(=O)N1Cc1ccccc1 (stereo not given),-5.39,3.07,4.62,-5.36,-2.88
CC(C)Cn1c(=O)c2ccc(C(=O)NC3CCCCC3)cc2n2c(=O)n(CC(=O)NC3CCCC3)nc12,3.52,4.62,6.23,-0.393,-0.227
CCOc1ccccc1CNC(=O)CCn1ccc2cc(S(=O)(=O)N3CCC(C)CC3)ccc21,-8.09,-2.2,-10.4,-10.1,-5.42
CC1(C(=O)NC2CCCCCCC2)Cn2c(ccc2-c2ccccc2)C(=O)N1Cc1cccs1 (stereo not given),-2.46,0.405,-5.63,-8.68,-0.343
COc1ccc(NC(=O)Cn2c(=O)oc3cc(S(=O)(=O)N4CCC(C)CC4)ccc32)c(OC)c1,-2.1,-2.63,-5.78,-16.4,-7.63
COC(=O)c1ccc2c(c1)nc(NC(=O)c1ccccc1)n2CCCc1ccccc1,-0.902,-4.87,4.75,-13.8,0.44
COc1ccc(Cl)cc1C(=O)N1CCC2(CC1)CN(C)CCN2C,-1.47,0.06,1.19,1.52,-0.82
COCCCN1C(=O)c2ccc(-c3ccccc3)n2CC1(C)C(=O)NC1CCCCCCC1 (stereo not given),-7.1,-4.19,-5.79,-19.5,-1.62
O=c1nc(-c2ccccn2)sc2ccccc12,-2.16,-5.31,2.97,-16,-0.383
COc1ccc(CN2CC(c3nc(Cc4cccnc4)no3)C2)c(OC)c1,-6.47,-1.61,-3.28,-50,0.432
